Out of some 310,000 compounds screened, about 2,200 (0.71%) showed an effect of 50% or more. The effect is printed as a negative number. The list shows a part of the results.
biological target: human ether-à-go-go-related gene (hERG) potassium channel (human, UniProt Q12809); assay: primary screen, population patch clamp on CHO cells stably expressing hERG
Sequence (Q12809 whole entry, looked up): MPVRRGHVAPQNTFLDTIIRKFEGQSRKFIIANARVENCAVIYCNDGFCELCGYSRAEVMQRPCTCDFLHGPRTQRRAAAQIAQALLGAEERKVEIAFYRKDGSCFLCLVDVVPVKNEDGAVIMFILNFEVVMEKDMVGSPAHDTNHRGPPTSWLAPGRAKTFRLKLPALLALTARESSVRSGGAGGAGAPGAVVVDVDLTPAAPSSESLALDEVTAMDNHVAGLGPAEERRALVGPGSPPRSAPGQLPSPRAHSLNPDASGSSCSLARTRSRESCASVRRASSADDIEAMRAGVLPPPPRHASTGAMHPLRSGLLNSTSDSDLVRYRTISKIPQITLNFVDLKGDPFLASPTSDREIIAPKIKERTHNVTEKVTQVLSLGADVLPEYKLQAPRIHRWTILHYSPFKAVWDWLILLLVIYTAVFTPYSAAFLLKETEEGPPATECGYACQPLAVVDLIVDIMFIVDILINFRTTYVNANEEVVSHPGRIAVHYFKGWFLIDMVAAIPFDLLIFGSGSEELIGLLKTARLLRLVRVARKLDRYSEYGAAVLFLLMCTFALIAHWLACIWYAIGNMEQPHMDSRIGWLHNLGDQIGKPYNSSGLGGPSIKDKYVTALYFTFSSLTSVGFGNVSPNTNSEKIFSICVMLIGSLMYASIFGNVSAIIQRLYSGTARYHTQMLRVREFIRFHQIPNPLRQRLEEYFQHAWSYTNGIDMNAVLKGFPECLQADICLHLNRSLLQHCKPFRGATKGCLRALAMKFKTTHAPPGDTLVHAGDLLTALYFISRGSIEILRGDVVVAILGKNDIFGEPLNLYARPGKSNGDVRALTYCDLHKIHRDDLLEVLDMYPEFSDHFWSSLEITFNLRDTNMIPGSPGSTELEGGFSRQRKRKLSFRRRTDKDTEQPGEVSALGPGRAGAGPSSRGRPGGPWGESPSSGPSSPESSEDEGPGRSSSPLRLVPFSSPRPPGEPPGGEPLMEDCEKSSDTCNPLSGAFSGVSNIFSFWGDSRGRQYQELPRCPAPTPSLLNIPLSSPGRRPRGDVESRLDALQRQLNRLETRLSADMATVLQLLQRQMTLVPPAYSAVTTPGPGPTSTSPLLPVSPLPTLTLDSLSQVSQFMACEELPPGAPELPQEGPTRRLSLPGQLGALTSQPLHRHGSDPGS

Row | SMILES | hERG current change (%, negative = inhibition) at 1uM [%]
1 | Cn1c(-c2ccc(-c3ccccc3)cc2)c[nH]c1=S | 6.4
2 | CC(C)=N/N=C(\c1cccc([N+](=O)[O-])c1)C12CN3CN(CN(C3)C1)C2 | 13.9
3 | Cc1ccc(S(=O)(=O)N2CC(O)C[C@H]2C(=O)OCC(=O)c2ccccc2)cc1 (stereo partly drawn) | 13.4
4 | CCC(C)NC(=O)c1cc(-c2ccc(OC)cc2)on1 (stereo not drawn) | -1.11
5 | CC(=O)Nc1ccc(NC(C)=O)c(NC2OCC(O)C(O)C2O)c1 (stereo not drawn) | 14.1
6 | COC(=O)CSc1cc(C)nc(NC(C)=O)n1 | 6.03
7 | O=C1C(Cl)=C(NS(=O)(=O)c2ccc([N+](=O)[O-])cc2)C(=O)c2ccccc21 | 12.7
8 | CNC(=S)N/N=C/C1=CCC2CC1C2(C)C (stereo not drawn) | 7.8
9 | Cc1cc[n+](-c2[nH]c(=O)sc2/C=N/NC(=O)c2ccccc2[O-])cc1C | 2.09
10 | O=C(CC1OC(=O)c2ccccc21)Nc1ccc(Cl)c(S(=O)(=O)N2CCCCC2)c1 (stereo not drawn) | 16.6
11 | COC(=O)c1ccc(-c2ccc(C(c3c(C)[nH][nH]c3=O)c3c(C)[nH][nH]c3=O)o2)cc1 | 28.1
12 | Cc1cc2c(cc1S(=O)(=O)NCC(C)c1ccccc1)n(C)c(=O)c(=O)n2C (stereo not drawn) | -7.07
13 | COCC(C)NC(=O)NC(=O)c1ccc(Cl)cc1 (stereo not drawn) | 4.56
14 | Cc1ccc(-n2nc(-c3cccs3)cc2C(=O)NCC2CCCO2)c(C)c1 (stereo not drawn) | 10.7
15 | COc1ccc(Nc2nnc(-c3ccc(C(=O)NCCO)cc3)c3ccccc23)cc1 | 16.3
16 | O=S(=O)(c1ccc(NC(=S)Nc2ccc(OC(F)F)cc2)cc1)N1CCOCC1 | -2.23
17 | O=C(CSc1nccn1-c1ccccc1)NCc1ccc(F)cc1 | 5.89
18 | CCCC1CC(CCc2ccccc2)OS(=O)(=O)N1 (stereo not drawn) | 0.614
19 | COc1ccc(-c2cn3ccc(C)cc3n2)cc1 | 5.08
20 | C(=N\N=C\c1ccncc1)/c1ccncc1 | 5.24
21 | CC1Cc2cc(S(=O)(=O)NCc3ccccc3)ccc2N1C(=O)C1CCC1 (stereo not drawn) | 17.1
22 | COc1cccc(C(=O)N(Cc2ccc(N(C)C)cc2)C2CCS(=O)(=O)C2)c1 (stereo not drawn) | 0.397

Row | SMILES | hERG current change (%, negative = inhibition) at 1uM [%]
23 | CCCCSC1=C(C#N)C(c2ccccc2C)CC(=O)N1 (stereo not drawn) | 8.92
24 | COc1ccc(C(=O)Nc2nc(-c3ccc([N+](=O)[O-])cc3)c(-c3ccccc3)s2)cc1 | 9.03
25 | CC1CCCC(C)N1C(=O)COc1ccc([N+](=O)[O-])cc1Cl (stereo not drawn) | -0.86
26 | CC(C)(C)C1CCC(=NNC(=O)C2COc3ccccc3O2)CC1 (stereo not drawn) | 7.83
27 | CC(=O)c1sc(NC(=O)CCS(=O)(=O)c2ccc(Cl)cc2)nc1C | 2.86
28 | O=C(CSc1nncn1-c1ccccc1)Nc1ccccc1 | 11.3
29 | O=C(O)COc1ccc(/C=C/C(=O)c2ccc3ccccc3c2)cc1 | 9.88
30 | O=C(NC(=S)Nc1ccc(S(=O)(=O)Nc2nccs2)cc1)c1cccnc1 | 15.2
31 | Cc1cc(=O)[nH]c(N/N=C/C=C/c2ccccc2)n1 | -21.3
32 | O=C(c1cc(COc2cccc(C(F)(F)F)c2)on1)N1CCC(c2ccncc2)CC1 | -28.8
33 | O=C(Nc1ccc2nn(-c3ccccc3)nc2c1)c1ccc(Br)o1 | 6.62
34 | COc1ccccc1-n1c(SCC(=O)N2CCOCC2)nc2cccnc21 | 6.72
35 | O=C(O)[C@@H]1CC(O)CN1C(=O)CCc1c[nH]c2ccccc12 (stereo partly drawn) | 15.8
36 | Cc1ccc(NC(=S)N(Cc2cccs2)Cc2cc3cccc(C)c3[nH]c2=O)cc1 | -3.31
37 | CCOC(=O)/C(C#N)=C/c1ccc(OC(=O)c2ccco2)c(OCC)c1 | 7.35
38 | O=C(O)c1cccc(Nc2ccc([N+](=O)[O-])c3nonc23)c1 | 2.1
39 | Cc1nnc2ccc(-c3ccc(NC(=O)c4cccnc4Cl)cc3)nn12 | 14.5
40 | Cc1ccc(-c2nc(CS(=O)(=O)CC(=O)Nc3cc(F)ccc3F)c(C)o2)cc1 | 6.9
41 | Cc1cc(C)c(C)c(S(=O)(=O)N2CCN(CC(=O)NC(=O)NCc3ccccc3)CC2)c1C | 11.9
42 | O=C(COC(=O)c1ccc(Cl)cc1)NC1CCCCCC1 | 7.76
43 | CC(C)(C)c1cc2cccnc2n1Cc1cccc(Cl)c1 | -2.64
44 | COCCn1c(SCC(=O)Nc2ccc(C)cc2)nc2c(oc3ccccc32)c1=O | 9.36

Row | SMILES | hERG current change (%, negative = inhibition) at 1uM [%]
45 | CCCOc1ccc(N2C(=O)CC(N3CCN(CCN=CC4C(=O)CC(C)(C)CC4=O)CC3)C2=O)cc1 (stereo not drawn) | 13.8
46 | O=C(c1cc2cc(Cl)ccc2[nH]1)N1CCCCC1 | 5.58
47 | CN(C)/C=C/C(=O)c1ccc(-n2cccc2)cc1 | 9.29
48 | CCOC(=O)[C@@H]1[C@H]2COc3cc(OC)ccc3[C@@H]2N2C(=O)N(c3ccc(C(F)(F)F)cc3)C(=O)[C@@]12C | 1.83
49 | COc1ccccc1-n1cnc2c(c1=O)c1nc3ccccc3nc1n2-c1ccc(C)cc1 | -4.88
50 | NC1=NC2(CCN(Cc3ccccc3)CC2)n2c(nc3ccccc32)N1 | -1.37
51 | COc1ccc(N(C)C(=O)c2cc3c(s2)-c2ccccc2OC3)c(OC)c1 | 5.39
52 | Cc1ccc(C2=CC(c3ccc(C)cc3)n3ncnc3N2)cc1 (stereo not drawn) | 6.65
53 | O=C(CSc1nc2ccccc2[nH]1)NC(=O)NCc1ccco1 | 5.11
54 | S=C(Nc1ccccc1Cl)NC1CCCCCC1 | -6.2
55 | COc1cccc(C2NC(=O)NC(C)=C2C(=O)Nc2ccc(C)cc2)c1 (stereo not drawn) | 13.1
56 | CN(C)CCCN(C(=O)c1ccc(S(=O)(=O)N(C)Cc2ccccc2)cc1)c1nc2cc3c(cc2s1)OCO3.Cl | -3.8
57 | O=c1c2ccccc2sn1-c1ccc(F)cc1 | 16.3
58 | COc1cc(/C=N\n2nnnc2N)ccc1OCc1ccc(F)cc1 | -2.39
59 | COCCn1c(=N)c(C(=O)NCc2ccco2)cc2c(=O)n3cc(C)ccc3nc21 | -92
60 | O=C(CC1C(=O)N(c2ccccc2)C(=O)N1C1CCCCC1)Nc1ccccc1 (stereo not drawn) | 18.5
61 | CCOc1ccc(C(=O)Nc2ccc(S(=O)(=O)N3C[C@@H]4C[C@@H](C3)c3cccc(=O)n3C4)cc2)cc1 | -1.43
62 | CC(C)OC(=O)CSc1nnc(-c2ccc(Cl)cc2Cl)n1N | 3.79
63 | CC(/C=C/C1(O)C(C)CC(=O)CC1(C)C)OC1OC(CO)C(O)C(O)C1O (stereo not drawn) | -1.48
64 | CCOC(=O)COc1c(Br)cc(C2NC(=O)NC(C)=C2C(C)=O)cc1OC (stereo not drawn) | 12.4
65 | O=C(COC(=O)CC1CCCC1)Nc1cccc(F)c1 | 8.2
66 | COc1ccccc1/C=N\Nc1cn[nH]c(=O)c1Cl | 12.6

Row | SMILES | hERG current change (%, negative = inhibition) at 1uM [%]
67 | COC(=O)CNC(=O)/C=C/c1ccc(OC)cc1 | 8.46
68 | CCOP(=O)(Cc1cc(C#N)oc1C)OCC | 11.4
69 | NC(=O)C1CCN(C(=O)c2ccc(-c3ccccc3Cl)o2)CC1 | 8.44
70 | COc1ccc(/C=C/C(=O)N2CCN(S(=O)(=O)/C=C/c3ccccc3)CC2)cc1OC | 10.1
71 | COc1ccc(C(CC(=O)N2CCCCC2)NC(=O)C(F)(F)F)cc1 (stereo not drawn) | 4.24
72 | COc1ccccc1CNC(=O)COC(=O)c1cc(-c2ccco2)nc2ccccc12 | 7.64
73 | O=C(Cc1ccc(Cl)cc1)N/N=C/c1ccncc1 | 7.9
74 | CCSc1ncc(Cl)c(C(=O)Nc2ccccc2C)n1 | 5.18
75 | COc1cccc(CNC(=O)CSc2ccc(-c3cccs3)nn2)c1 | 4.9
76 | Cc1cnc(C)c(N2CCN(Cc3nc(-c4ccc(C)o4)oc3C)CC2)n1 | 8.17
77 | CCOc1ccccc1NC(=O)N1CCN(S(C)(=O)=O)CC1 | 9.65
78 | O=C(NC1CCCCC1)N(Cc1nc2ccccc2c(=O)[nH]1)C1CCCC1 | 4.03
79 | COc1ccc(/C=C2/C(=O)N(c3c(F)c(F)c(F)c(F)c3F)N=C2C)cc1 | 9.9
80 | CCN1CCN(C2CCCCC2NS(=O)(=O)c2ccc(Cl)cc2)CC1 (stereo not drawn) | -36.1
81 | NC(=O)c1ccc(NC(=O)COC(=O)c2n[nH]c3ccccc23)cc1 | 13.5
82 | CCN(C(=O)COC(=O)/C(C#N)=C/c1ccc(OC)cc1)C1CCS(=O)(=O)C1 (stereo not drawn) | 17.6
83 | Cc1cn(CCC(=O)Nc2ccc(N3CCOCC3)cc2)c2ccccc12 | -2.97
84 | CCn1c2ccccc2c2cc(NC(=O)CSc3nnc(-c4ccc(OC)c(OC)c4)n3N)ccc21 | 11.3
85 | COc1ccc(CN2[C@@H](CC(=O)O)c3cc(F)ccc3S2(=O)=O)cc1 | 12.8
86 | O=c1nc(N/N=C/c2ccccn2)cn[nH]1 | 3.36
87 | COc1cc2cc(CN(Cc3nnnn3Cc3ccco3)C3CCCCC3)c(=O)[nH]c2cc1OC | 1.72
